In PubChem BioAssay AID1347165 (National Center for Advancing Translational Sciences (NCATS), 2019):
The campaign covered roughly 220,000 compounds. About 5,700 (2.6%) were called active. The inconclusive results got no clear call from the source; some entries with a clear call stand among them for comparison. Calls come from the whole dose curve; as a rule, active = well fitted inhibition curve with a large enough effect; inconclusive = small, poorly fitted or top-dose-only effect; inactive = no such curve, though single readings can be large or run the other way. Where the call is inconclusive, the potency comes from a doubtful curve fit.

Target: Lysine-specific demethylase 5B (Homo sapiens) (UniProt Q9UGL1)
Sequence of UniProt Q9UGL1 (Q9UGL1 whole entry, looked up): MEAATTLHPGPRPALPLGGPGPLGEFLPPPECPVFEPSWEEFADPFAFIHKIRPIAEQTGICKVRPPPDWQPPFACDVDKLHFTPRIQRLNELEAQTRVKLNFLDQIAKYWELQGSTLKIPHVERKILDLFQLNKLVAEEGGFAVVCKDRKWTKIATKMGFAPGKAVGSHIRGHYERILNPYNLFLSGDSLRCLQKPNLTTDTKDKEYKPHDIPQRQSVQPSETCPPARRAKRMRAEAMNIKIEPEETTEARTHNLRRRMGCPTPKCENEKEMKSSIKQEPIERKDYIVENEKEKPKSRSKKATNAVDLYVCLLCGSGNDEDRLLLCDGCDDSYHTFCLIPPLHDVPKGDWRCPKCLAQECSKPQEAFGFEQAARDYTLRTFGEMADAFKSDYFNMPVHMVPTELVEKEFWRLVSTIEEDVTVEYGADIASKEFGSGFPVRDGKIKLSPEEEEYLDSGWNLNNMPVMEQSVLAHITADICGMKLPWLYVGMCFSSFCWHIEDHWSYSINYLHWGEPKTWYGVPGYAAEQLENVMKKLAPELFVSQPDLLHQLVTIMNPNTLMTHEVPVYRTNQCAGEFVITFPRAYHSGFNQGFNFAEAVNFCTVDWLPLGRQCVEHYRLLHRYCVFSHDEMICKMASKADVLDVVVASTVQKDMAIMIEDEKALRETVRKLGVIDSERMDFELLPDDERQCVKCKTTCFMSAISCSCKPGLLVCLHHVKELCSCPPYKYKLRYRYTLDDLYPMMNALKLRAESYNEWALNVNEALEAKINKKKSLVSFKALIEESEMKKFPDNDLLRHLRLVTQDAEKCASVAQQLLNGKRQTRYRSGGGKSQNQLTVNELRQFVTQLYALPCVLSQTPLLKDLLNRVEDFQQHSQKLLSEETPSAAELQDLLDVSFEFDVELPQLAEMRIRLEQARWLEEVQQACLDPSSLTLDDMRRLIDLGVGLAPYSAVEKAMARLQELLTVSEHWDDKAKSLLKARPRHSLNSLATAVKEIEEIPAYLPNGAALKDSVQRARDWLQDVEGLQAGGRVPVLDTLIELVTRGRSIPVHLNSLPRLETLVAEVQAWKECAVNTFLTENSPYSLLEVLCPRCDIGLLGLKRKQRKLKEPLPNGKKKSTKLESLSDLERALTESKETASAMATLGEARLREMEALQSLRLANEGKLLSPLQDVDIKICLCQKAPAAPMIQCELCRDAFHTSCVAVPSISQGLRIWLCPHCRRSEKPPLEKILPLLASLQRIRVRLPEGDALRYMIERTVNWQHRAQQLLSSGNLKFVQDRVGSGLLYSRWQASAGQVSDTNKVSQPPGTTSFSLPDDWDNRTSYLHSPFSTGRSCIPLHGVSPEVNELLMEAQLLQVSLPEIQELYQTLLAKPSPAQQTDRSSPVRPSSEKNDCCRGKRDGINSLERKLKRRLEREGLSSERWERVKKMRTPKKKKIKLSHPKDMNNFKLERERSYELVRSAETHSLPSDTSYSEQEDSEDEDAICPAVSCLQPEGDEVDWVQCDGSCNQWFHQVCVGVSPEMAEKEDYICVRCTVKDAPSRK
Assay: Primary screen for KDM5B Histone Demethylases FDH-coupled qHTS; note: nearly all actives have a fitted effect of over 70% in size; for activity change, negative = inhibition: 0% is about no effect
Details: FDH-coupled NADH fluorescence (FDH is formaldehyde dehydrogenase); activity change, negative = inhibition: at 57.7 µM (top of the series) unless noted
How it was run: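 Compound dilutions met 200 nM (final) KDM5BΔAP for 10 min at room temperature before substrate addition. The substrate mix held 12.5 µM H3K4me3 with cofactors 25 µM α-ketoglutarate and 50 µM Fe²⁺. NADH signal gain over 30 min defined activity.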
Potency is the fitted concentration of half-maximal effect; tags give direction and shape of the fitted curve.

Structure (SMILES) | Potency | activity change, negative = inhibition
CCn1c(=NC(=O)C2COc3ccccc3O2)sc2c(OC)ccc(OC)c21 (configuration not stated) | inconclusive: 28.2 µM [inhibitor, partial curve, poor fit] | 
CCOC(=O)C1(Cc2ccccc2F)CCCN(C(=O)c2ccc(-n3ccnc3)cc2)C1 (configuration not stated) |  | inactive: 44.3%
O=C(O)CCC(NS(=O)(=O)c1ccc(Cl)cc1)C(=O)O (configuration not stated) |  | inactive: 25.7%
CCCCC(=O)NC1(C(F)(F)F)C(=O)N(Cc2ccccc2)C(C)=C1C(=O)c1ccccc1 (configuration not stated) |  | inactive: -17.2%
Cc1ccc(Nc2cc(C)nc3c(C)cc(C)c([N+](=O)[O-])c23)cc1 |  | inactive: 13.1%
CC(OC(=O)c1ccccc1O)C(=O)Nc1ccc2c(c1)OCO2 (configuration not stated) | inconclusive: 39.8 µM [inhibitor, single point] | 
Cc1nc(-c2cccc(Cl)c2)n(Cc2ccc(F)c(F)c2)c(=O)c1CCO |  | inactive: -36.5%
COc1ccc(CCc2nc3nccc(-c4ccco4)n3n2)cc1 | inconclusive: 11.2 µM [inhibitor, partial curve] | 
CC(=O)Oc1ccc(C(=O)Nc2ccc(O)c(-c3nc4ccccc4o3)c2)cc1 |  | inactive: 1.74%
CCc1ccc(C2CC(c3ccccc3)=NN2c2nc(C)cs2)cc1 (configuration not stated) |  | inactive: -785%
CCCCCc1ccc(-c2ccc(C(=O)Oc3ccc(OCCCC)cc3)cc2)nc1 |  | inactive: 27.3%
CC(=O)Nc1cccc(NC(=O)Cc2nn(C)c(=O)c3ccccc23)c1 |  | inactive: 9.78%
COc1ccc(-c2nc3cnccc3o2)cc1NC(=O)c1ccccc1 |  | inactive: -13.9%
Cc1noc(C)c1-c1cc2cc(C(C)C)oc2c(NC(C)C)n1 | inconclusive: 31.6 µM [inhibitor, single point] | 
CC(CSc1nc2ccccc2o1)Cn1c(N2CCOCC2)nc2c1c(=O)[nH]c(=O)n2C (configuration not stated) |  | inactive: -18.3%
COC(=O)c1cc(-c2ccccc2)nc2ccccc12 | inconclusive: 25.1 µM [inhibitor, single point] | 
CCCCc1nnc(NC(=O)CCc2c[nH]c3ccccc23)s1 |  | inactive: 2.41%
CC(C)C1N=C2c3ccccc3N=C(SCC(=O)NCc3ccccc3Cl)N2C1=O (configuration not stated) | inconclusive: 28.2 µM [inhibitor, partial curve, poor fit] | 
COC(=O)[C@H]1C[C@@]2(n3ccc4ccccc43)c3ccccc3N(S(=O)(=O)c3ccccc3)[C@H]2N1C(=O)CNC1CCCCC1 | inconclusive: 39.8 µM [inhibitor, single point] | 
Cc1ccc(-n2cccc2CC(=O)N2CCCC2)cc1 | inconclusive: 28.2 µM [inhibitor, single point] | 
O=C1[C@@H]2C[C@@H](CN2Cc2cccnc2)Oc2ccccc2N1CC1CC1 | inconclusive: 35.5 µM [inhibitor, partial curve, poor fit] | 
Cc1ccc(-c2ncc(NC(=O)c3ccccc3C(F)(F)F)cn2)cc1 | inconclusive: 15.8 µM [inhibitor, partial curve, poor fit] | 
CC1=C(C(N)=O)C(c2cccc(C)c2)n2nc(-c3cccc(C)c3)nc2N1 (configuration not stated) | inconclusive: 31.6 µM [inhibitor, single point] | 
Cc1ccc(C(=O)N[C@@H]2CN(Cc3ccncc3)C[C@H]2CN(C)C)c(C)c1 | inconclusive: 5.01 µM [inhibitor, full curve, poor fit] | 

Structure (SMILES) | Potency | activity change, negative = inhibition
COc1ccc2[nH]c(C(=O)N3C[C@@H](CO)[C@H](c4ccccn4)C3)cc2c1 | inconclusive: 31.6 µM [inhibitor, partial curve, poor fit] | 
COc1ccccc1C(=O)N1CCC2(CC1)CC(c1cccnc1)=NO2 |  | inactive: -11.4%
Cc1ccccc1N1Cc2c(NCCCc3ccccc3)ncnc2N(C)CC1=O |  | inactive: -20.8%
COc1ccc2c(-c3ccccc3)cc(SCC(=O)NCC(F)(F)F)nc2c1 | inconclusive: 28.2 µM [inhibitor, partial curve, poor fit] | 
Cc1ccc(-c2cn3c(n2)sc2cc(C(=O)NCc4cccs4)ccc23)c(C)c1 | inconclusive: 31.6 µM [inhibitor, partial curve, poor fit] | 
CCN1CC2(CCN(C(=O)c3cccc(Cn4cccn4)c3)CC2)OC1=O |  | inactive: -22.9%
O=C(c1c[nH]c(=O)c2ccccc12)N1C[C@H](CO)C[C@H](CN2CCCC2)C1 | inconclusive: 31.6 µM [inhibitor, partial curve, poor fit] | 
O=C(Nc1cccc(F)c1)Nc1cccc(-c2ccc(N3CCCCC3)nn2)c1 | inconclusive: 25.1 µM [inhibitor, single point] | 
COCCCn1c(=O)c2sccc2n2c(CCCC(=O)NCc3ccc(F)cc3)nnc12 | inconclusive: 39.8 µM [inhibitor, single point] | 
COc1ccccc1N=C1NN=C(c2cc(C)n(CC3CCCO3)c2C)CS1 (configuration not stated) |  | inactive: 21.3%
c1ccc(CCN2CCC(NC3CCCC3)CC2)cc1 |  | inactive: 12.4%
O=C1Nc2ccccc2C1CCO (configuration not stated) |  | inactive: 7.94%
N#CC1=C(N)OC2=C(C(=O)CC(c3ccccc3)C2)C1c1ccc(Cl)cc1Cl (configuration not stated) |  | inactive: -0.601%
COc1ncccc1-c1nccc2c(=O)cc(-c3cccnc3)oc12 | active: 35.5 µM | 
COc1ccc(C2Oc3nc(SC)nnc3-c3ccccc3N2C(C)=O)cc1 (configuration not stated) | inconclusive: 14.1 µM [inhibitor, partial curve, poor fit] | 
Cc1ccc(-c2cc(-c3ccncc3)c3cncn3c2)cn1 | inconclusive: 35.5 µM [inhibitor, single point] | 
CC(=O)Nc1cccc(C(=O)NCc2nnc3ccc(-c4ccccc4)nn23)c1 | active: 31.6 µM | 
COc1ccc(-c2ccc(CCC(=O)O)n2-c2ccc(Cl)cc2C)cc1 | inconclusive: 14.1 µM [inhibitor, partial curve, poor fit] | 
CCN(C(=O)CSc1nc2n[nH]c(C)c2c(=N)n1-c1cccc(OC)c1)c1cccc(C)c1 | inconclusive: 39.8 µM [inhibitor, single point] | 
Cc1ccccc1C(=O)N[C@@H]1CN(c2ncccn2)C[C@H]1CO | inconclusive: 25.1 µM [inhibitor, single point] | 
CCOc1ccc(NC(=O)Nc2ccc3nc(N4CCOCC4)cc(C)c3c2)cc1 |  | inactive: -12%
CCCNc1c(NC(=O)Nc2cc(Cl)ccc2C)c(=O)oc2ccccc12 |  | inactive: -8.09%
C=CCn1c(SCc2ccccc2Cl)nnc1-c1sc2nc(C)cc(C)c2c1N | inconclusive: 31.6 µM [inhibitor, partial curve, poor fit] | 
Cc1cccc2cc(CN(Cc3cccnc3)C(=O)C(C)C)c(=O)[nH]c12 | inconclusive: 39.8 µM [inhibitor, single point] | 

Structure (SMILES) | Potency | activity change, negative = inhibition
Cc1cn2c(=O)c(S(=O)(=O)NCc3ccccc3Cl)c(C)nc2s1 | inconclusive: 2.24 µM [inhibitor, full curve, poor fit] | 
CC1CCN(C(=O)c2ccc(-c3ccc(N4CCSCC4)nc3)cc2)CC1 | active: 28.2 µM | 
COC(=O)[C@@H]1Cc2c([nH]c3ccccc23)[C@H]2C[C@@H](NCCN3CCOCC3)C[C@@H](c3ccc(C(F)(F)F)cc3)N21 | inconclusive: 1.78 µM [inhibitor, partial curve, poor fit] | 
Cc1nc2scc(CC(=O)N3CCCC3)n2c(=O)c1-c1cc(C)n(-c2ccc(C(C)C)cc2)n1 | active: 25.1 µM | 
CCOC(=O)c1c(NC(=O)c2cc(Cl)ccc2Cl)sc2c1CCCC2 | inconclusive: 14.1 µM [inhibitor, partial curve, poor fit] | 
Cc1ccc(CNc2cc(C)nc3nc(-c4cccc(C)c4)nn23)cc1 | inconclusive: 15.8 µM [inhibitor, partial curve, poor fit] | 
COc1ccc(-c2cc(C(=O)OCC(=O)c3c(N)n(C)c(=O)n(C)c3=O)c3ccccc3n2)cc1 | inconclusive: 39.8 µM [inhibitor, single point] | 
Cc1ccc(N)c(OCC(F)(F)F)c1 |  | inactive: -2.01%
Cc1ccc(CNc2nccn(-c3cc(C)cc(C)c3)c2=O)cc1 | inconclusive: 25.1 µM [inhibitor, single point] | 
c1ccc2cc(CN3CCN(Cc4c[nH]c5ccccc45)CC3)ccc2c1 | inconclusive: 20 µM [inhibitor, partial curve, poor fit] | 
O=C(c1cccc2nc3ccccc3nc12)N1CCOCC1 |  | inactive: -2.07%
CCCn1c(CNC(=O)c2cc(OC)c(OC)c(OC)c2)nc2ccccc21 |  | inactive: -12.7%
O=C(C1CCOCC1)N1CCC(c2nc(C3CCOCC3)no2)C1 (configuration not stated) | inconclusive: 25.1 µM [inhibitor, single point] | 
CC1=C/C(=N\NC(=S)Nc2ccccc2C)CC1 |  | inactive: 15.4%
O=C(Nc1ccc(F)cc1)c1ccc2ccnn2c1 | inconclusive: 39.8 µM [inhibitor, single point] | 
Cc1cccc(NC(=O)COc2cccc3c(=O)n(C)ccc23)c1C | inconclusive: 25.1 µM [inhibitor, single point] | 
COC(=O)C1=C(N)Oc2n[nH]c(-c3ccccc3)c2C12C(=O)N(Cc1cccc(F)c1)c1ccccc12 (configuration not stated) |  | inactive: -6.13%
CC(C)(C)c1ccc(C(=O)NN=C2CCCCC2)cc1 |  | inactive: 27.1%
CCC(C)NC(=O)c1sc2ncccc2c1-n1c(C)ccc1C (configuration not stated) | inconclusive: 2.82 µM [inhibitor, partial curve, poor fit] | 
N#Cc1cccc(NC(=O)O[C@@H]2CO[C@H]3[C@@H]2OC[C@@H]3n2nnnc2SC2CCCC2)c1 |  | inactive: 4.23%
CC(=O)NCC(=O)N1CCCn2cc(-c3ccccc3)nc21 |  | inactive: 6.62%
Cc1nc2ncccn2c1C(=O)N[C@H]1CCOC[C@H]1C1CCOCC1 | active: 28.2 µM | 
CC(C)NC[C@H]1COCc2nc3cc(C(F)(F)F)ccc3n21 |  | inactive: -4.85% [at 86.2 µM]
O=C(NC1Cc2ccccc2C1)C1CC1 |  | inactive: 5.91%
